Among all 360,000 compounds or so, about 11,000 (3.1%) were called active. The inconclusive results got no clear call from the source; some entries with a clear call stand among them for comparison. The call rests on the fitted dose curve; in most records, active means well fitted inhibition curve with a large enough effect; inconclusive means small, poorly fitted or top-dose-only effect; inactive means no such curve, though single readings can be large or run the other way. No potency is given beside an inconclusive call; the fits are too rough.
molecular target: Schistosoma mansoni thioredoxin glutathione reductase (TGR) (UniProt Q962Y6); test: qHTS Assay for the Inhibitors of Schistosoma Mansoni Peroxiredoxins; settings: purified TGR, DTNB reduction, TNB absorbance 405 nm; activity change, negative = inhibition: at 114 µM (top of the series) unless noted; further: nearly all actives have a fitted effect of over 60% in size
How it was run: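 Kinetic colorimetric format: TGR-catalysed, NADPH-driven DTNB reduction monitored via TNB absorbance. Enzyme dispensed at 20 nM; compound exposure 15 min at room temperature before reaction start.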
On the % scale 0 is the no-effect control and ±100 the full control effect; potency means the concentration at half of the fitted maximal effect; tags describe the fitted curve by direction and shape.

SMILES	Potency	activity change, negative = inhibition
CC(NC(=O)[C@@H](C)NC(=O)[C@@H]1Cc2ccccc2CN1C(=O)OC(C)(C)C)c1ccccc1 (some centres undefined)	inconclusive [inhibitor, single point]	
O=C(Nc1cccc([N+](=O)[O-])c1)C1COc2ccccc2O1 (centres undefined)	inconclusive [inhibitor, single point]	
O=C1C(Cc2ccccc2)Nc2ncnc(N3CCOCC3)c2N1Cc1ccc(Br)cc1 (centres undefined)	inconclusive [inhibitor, partial curve]	
CCc1ccc(N(CC(=O)NC2CC2)S(=O)(=O)c2ccc(C)cc2)cc1	active: 39.8 µM	
CCN1C(=O)/C(=C/C=C2/Sc3ccccc3N2CCO)SC1=S	inactive	
O=Cc1cccn1-c1ccccc1	inactive	
CCOC(=O)c1cccc(NC(=O)c2cc(S(=O)(=O)N3CCCCCC3)cn2C)c1	inactive	
O=C(Nc1ncc(Cc2cccc(C(F)(F)F)c2)s1)C1CCCO1 (centres undefined)	inactive	
COc1cc(OC)cc(C(=O)NCC(=O)OC2CCOC2=O)c1 (centres undefined)	inconclusive [inhibitor, single point]	
CN(CC(=O)O)S(=O)(=O)c1ccc2c(c1)NC(=O)CC(=O)N2	inactive	
CCOc1ccc(NC(=O)c2c(NCc3sccc3C)sc3c2CCCCC3)cc1	active: 7.94 µM	
Cc1ccnc(NS(=O)(=O)c2ccc(NC(=O)C(C)(C)C)cc2)n1	inactive	
COC(=O)c1ccc(Nc2c([N+](=O)[O-])ccc3nonc23)cc1	inactive	
O=C1NN(c2ccccc2)C(=O)/C1=C\c1cccc(OC(=O)c2cccs2)c1	active: 35.5 µM	
CCOC(=O)N1CCc2c(sc(NCc3ccc(N(C)C)cc3)c2C(=O)Nc2ccc(OC)cc2)C1	inactive	
CC1CCCC(NC(=S)NC(=O)c2ccccc2Br)C1C (centres undefined)	inconclusive [inhibitor, partial curve]	
NNC(=S)NC1CC2CC1C1C=CCC21 (centres undefined)	inactive	
O=c1c(C(c2ccc(O)cc2)c2c(O)nc3n(c2=O)CCS3)c(O)nc2n1CCS2	active: 10 µM	
Cc1ccc2c(C(=O)CN3CCSCC3)c(C)[nH]c2c1	inconclusive [inhibitor, partial curve]	
O=C(NCc1ccccc1)c1c[nH]c2ccccc2c1=O	inconclusive [inhibitor, full curve, poor fit]	
CC1CCC/C(=N\NS(=O)(=O)c2ccccc2)C1 (centres undefined)	inconclusive [inhibitor, partial curve]	
COc1ccc(CNCCc2c[nH]c3ccccc23)c(OC)c1OC	inactive	
O=C(N/N=C/c1ccco1)c1cc(-c2ccncc2)nc2ccccc12	inconclusive [inhibitor, partial curve]	
COc1cc(CCC(=O)Nc2ccc(C)c(S(=O)(=O)N3CCCCCC3)c2)cc(OC)c1OC	inactive	
Cc1cc(=O)n2nc(N3CCC(C(=O)NCc4ccccc4)CC3)sc2n1	inconclusive [inhibitor, single point]	

SMILES	Potency	activity change, negative = inhibition
O=C(NC(=S)Nc1ccc(F)cc1)C1CCCCC1	inconclusive [inhibitor, full curve]	
Cn1c(N)c(C(=O)COC(=O)c2cc(-c3ccco3)nc3ccccc23)c(=O)n(C)c1=O	active: 8.91 µM	
Cc1ccc(C(C(=O)NCc2ccc(F)cc2)N(Cc2ccco2)C(=O)c2snc(C(N)=O)c2N)o1 (centres undefined)	inconclusive [inhibitor, partial curve]	
COc1ccc(-c2ccc(NCCN3CCOCC3)nn2)cc1OC	inactive	
N#CNc1nc(O)cc(=O)[nH]1	inconclusive [inhibitor, full curve, poor fit]	
COc1ccc(O[C@H]2C=C[C@@H](c3ccccc3)O[C@@H]2CO/N=C(\C)CCC(=O)OC[C@H]2O[C@H](c3ccccc3)C=C[C@@H]2Oc2ccc(OC)cc2)cc1	inconclusive [inhibitor, partial curve]	
CCOc1ccc(C(C)=O)cc1N1C(=O)C2C3C=CC(C3)C2C1=O (centres undefined)	inconclusive [inhibitor, partial curve]	
COc1ccc2[nH]c(=O)c(CNc3ccccc3OC)cc2c1	active: 17.8 µM	
Cc1nnc(N2C(=O)C(O)=C(C(=O)c3ccco3)C2c2cccc3ccccc23)s1 (centres undefined)	inconclusive [inhibitor, partial curve]	
CCOC(=O)C1=C(C(C)=O)C(c2cccnc2)C(C#N)=C(N)O1 (centres undefined)	inconclusive [inhibitor, partial curve]	
CN(C)S(=O)(=O)n1cc(/C=C(\NC(=O)c2ccccc2F)C(=O)N2CCCC2)c2ccccc21	inactive	
O=C(CSc1ccc2nnc(-c3ccccc3)n2n1)NCc1ccco1	active: 44.7 µM	
Cc1cccc(-c2nc3nc(C)cc(NCc4ccccc4Cl)n3n2)c1	inconclusive [inhibitor, partial curve]	
Cc1ccc(Cn2ccc(-c3cnc(-c4ccccc4)s3)n2)cc1	inactive	
CC(C)N1C(=O)CC(Nc2cccc3cccc(N)c23)C1=O (centres undefined)	inconclusive [inhibitor, full curve]	
CN(C)c1ccc(C(=O)OCC(=O)N2CCCCCC2)cc1	inconclusive [inhibitor, single point]	
Cc1ccc(CCN2CC(C(=O)NC3CCCC3)CC2=O)cc1 (centres undefined)		inconclusive: -37.1% [inhibitor]
COc1ccc(N2CC(C)Cn3c2nc2c3c(=O)n(CCc3ccccc3)c(=O)n2C)cc1 (centres undefined)	inconclusive [inhibitor, single point]	
COc1ccc(C(=O)NCCSCc2ccccc2)cc1OC	inconclusive [inhibitor, full curve, poor fit]	
Cc1cn2c(=O)cc(COc3ccccc3NC(=O)c3ccc(C(C)(C)C)cc3)nc2s1	inactive	
CCN1CCN(C2=C(Cl)C(=O)N(Cc3ccccc3)C2=O)CC1	inconclusive [inhibitor, full curve]	
O=S(=O)(c1ccccc1)N1N=C(c2ccc(Cl)cc2)CC1c1ccco1 (centres undefined)	active: 39.8 µM	
Cc1cc(C(=O)CCl)c(C)n1CC1COc2ccccc2O1 (centres undefined)	active: 10 µM	
CCc1ccc(OCC(=O)N/N=C/c2cc([N+](=O)[O-])ccc2N2CCCCCC2)cc1	inactive	
Cc1ccc(OCCn2c(=O)oc3ccc(C)cc32)cc1	inconclusive [inhibitor, single point]	

SMILES	Potency	activity change, negative = inhibition
CN(Cc1cnn(C)c1)C(=O)C1CCCCC1C(=O)O (centres undefined)	inconclusive [inhibitor, partial curve, poor fit]	
Cc1cc(C)c2nc(N3CCN(C(=O)c4ccco4)CC3)sc2c1	inconclusive [inhibitor, partial curve]	
Cc1ccccc1-c1nc(CS(=O)(=O)CC(=O)Nc2cc(F)ccc2F)c(C)o1	inconclusive [inhibitor, partial curve, poor fit]	
O=C(O)CSc1nnc(-c2ccc(S(=O)(=O)N3CCCC3)cc2)n1Cc1ccco1	inconclusive [inhibitor, full curve]	
CC(C)c1cnc2c(c1SCc1cccc(F)c1)c(=O)n(C)c(=O)n2C	inactive	
Cn1c(N)c(Br)c(-c2ccc(F)cc2)c(C#N)c1=O	inconclusive [inhibitor, partial curve]	
CN(C)CCCNS(=O)(=O)c1ccc(N2CCC(c3ccc(Cl)cc3)=N2)cc1	inconclusive [inhibitor, partial curve, poor fit]	
CN(c1cccc(Cl)c1)S(=O)(=O)c1cccc(C(=O)NCc2ccncc2)c1	inconclusive [inhibitor, partial curve]	
Cc1c(NC(=S)NC(=O)c2ccc(COc3ccccc3)cc2)cccc1C(=O)O	inconclusive [inhibitor, partial curve, poor fit]	
CCCCN(C(=O)c1ccc(-c2ccc(Cl)cc2)o1)c1c(N)n(CCC)c(=O)[nH]c1=O	inconclusive [inhibitor, partial curve]	
CCN(CC(=O)Nc1ccc(N2CCOCC2)cc1)C(=O)Cc1ccccc1	inactive	
O=C1CC(N2CCN(c3ccc(F)cc3)CC2)C(=O)N1Cc1cccs1 (centres undefined)	inconclusive [inhibitor, partial curve]	
FC(F)(F)c1cccc(CNC2CCN(Cc3ccccc3)CC2)c1	inactive	
Oc1ccc(CNCc2ccc3c(c2)OCO3)c2cccnc12	active: 5.62 µM	
Cc1cc(NC(=O)Cn2nnc3sc4c(c3c2=O)CCC(C(C)(C)C)C4)no1 (centres undefined)	inactive	
Cc1ncc(CO)c(/C=N/NC(=S)Nc2cccc(Cl)c2)c1O	inactive	
O=C(Nc1cccc(-c2nc3ccccc3o2)c1)c1cccc(Br)c1	inactive	
COc1ccc(-n2c(Cc3cccn3C)nnc2SCC(N)=O)cc1	inconclusive [inhibitor, partial curve]	
CNS(=O)(=O)c1ccc2c3c(cccc13)C(=O)N2	inactive	
CN1C(=O)SC(Nc2ccc(F)cc2)C1=O (centres undefined)	inactive	
CNS(=O)(=O)c1ccc(-c2ccc(C=C3C(=O)NC(=O)NC3=O)o2)cc1	inconclusive [inhibitor, full curve, poor fit]	
Cn1c(C(=O)NCCCN2CCCCCC2)cc2c(=O)n(C)c3ccccc3c21	inconclusive [inhibitor, partial curve]	
O=C(NCc1cccs1)c1ccc(CSc2nc3cccnc3n2Cc2ccccc2)cc1	inactive	
Clc1ccccc1CN1CCN(/N=C/C=C\c2ccco2)CC1	active: 50.1 µM	

Source: PubChem BioAssay AID485364 (National Center for Advancing Translational Sciences (NCATS), 2010)
